Measured values reported in article PMC6707248.
These are yes or no findings as the source states them, for the method shown. In cells and extracts the contact can be indirect. Some results given as binding are weak or reduced against the parent protein; the word gives no strength. For some assays here: Where a sequence is shown, tags or fusion partners need not be part of it. Values belong to the substance of their own block, whether it stands above or below them.

The chains behind the UniProt entries cited, without tags or fusion partners. Where a name states a change or a piece, a line headed by the entry shows the natural chain unless it says otherwise.
UniProt P06748: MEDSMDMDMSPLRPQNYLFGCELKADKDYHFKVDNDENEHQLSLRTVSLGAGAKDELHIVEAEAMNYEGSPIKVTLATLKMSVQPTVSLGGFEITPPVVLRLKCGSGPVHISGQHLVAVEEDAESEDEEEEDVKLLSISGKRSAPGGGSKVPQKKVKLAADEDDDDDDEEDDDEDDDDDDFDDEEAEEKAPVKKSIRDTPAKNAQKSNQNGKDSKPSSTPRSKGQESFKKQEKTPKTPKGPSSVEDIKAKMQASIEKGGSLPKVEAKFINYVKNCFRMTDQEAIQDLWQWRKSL
UniProt Q9H4L4: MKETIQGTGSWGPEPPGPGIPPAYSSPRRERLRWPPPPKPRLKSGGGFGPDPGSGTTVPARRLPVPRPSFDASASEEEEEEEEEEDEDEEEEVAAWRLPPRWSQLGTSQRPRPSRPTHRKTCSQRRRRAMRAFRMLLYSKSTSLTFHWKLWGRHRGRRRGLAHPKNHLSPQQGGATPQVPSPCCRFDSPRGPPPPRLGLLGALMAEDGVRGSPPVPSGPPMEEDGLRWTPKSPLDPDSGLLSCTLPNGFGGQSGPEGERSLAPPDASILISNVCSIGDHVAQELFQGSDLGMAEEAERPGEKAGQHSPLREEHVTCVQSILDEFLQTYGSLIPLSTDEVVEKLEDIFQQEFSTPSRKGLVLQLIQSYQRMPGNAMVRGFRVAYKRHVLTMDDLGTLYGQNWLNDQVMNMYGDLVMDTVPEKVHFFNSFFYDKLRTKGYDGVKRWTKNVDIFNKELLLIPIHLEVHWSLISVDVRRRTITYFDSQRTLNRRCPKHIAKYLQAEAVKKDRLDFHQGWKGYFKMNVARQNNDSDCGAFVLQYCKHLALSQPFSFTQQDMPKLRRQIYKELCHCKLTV
UniProt Q9Y3D8: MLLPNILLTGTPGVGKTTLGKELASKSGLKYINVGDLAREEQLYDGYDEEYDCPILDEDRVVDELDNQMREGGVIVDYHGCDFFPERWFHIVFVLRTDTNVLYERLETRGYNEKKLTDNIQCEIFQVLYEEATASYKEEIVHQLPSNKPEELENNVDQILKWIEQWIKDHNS
UniProt Q06609: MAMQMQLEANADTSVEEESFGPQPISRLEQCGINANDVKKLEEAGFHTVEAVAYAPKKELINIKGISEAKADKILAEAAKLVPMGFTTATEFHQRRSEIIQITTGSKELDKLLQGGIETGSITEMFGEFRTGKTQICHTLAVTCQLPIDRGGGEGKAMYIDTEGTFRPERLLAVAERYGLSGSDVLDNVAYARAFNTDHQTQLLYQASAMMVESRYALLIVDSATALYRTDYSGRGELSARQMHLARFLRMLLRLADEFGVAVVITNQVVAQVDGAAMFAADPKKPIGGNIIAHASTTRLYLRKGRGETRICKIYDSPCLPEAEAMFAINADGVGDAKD

How the values were obtained:
HA-NPM1 WT = HA-NPM1 WT (UniProt P06748); assay: co-IP; HEK293T expressing Flag-hCINAP and HA-NPM1 WT or NPM1 truncated mutants
Myc-SENP3 (human) = Myc-SENP3 (human) (UniProt Q9H4L4); assay: co-IP; HEK293T transfected with Myc-SENP3 and Flag-hCINAP for 48 h; immunoprecipitated with anti-Myc antibody
Flag-NPM1 K263R = Flag-NPM1 K263R (UniProt P06748); assay: co-IP; HEK293T transfected with the indicated vectors, indicated antibodies (Fig. 5j)
Flag-NPM1 WT = Flag-NPM1 WT (UniProt P06748); assay: as above
[1] = target: endogenous NPM1 (nucleophosmin) (human (endogenous in HEK293T, OCI-AML2)) (UniProt P06748); assay: co-IP; endogenous proteins, HEK293T whole-cell lysates, immunoprecipitated with an antibody against NPM1
[2] = target: endogenous SENP3 (human (endogenous in OCI-AML2, OCI-AML3)) (UniProt Q9H4L4); assay: co-IP; endogenous proteins, NPM1 mutant OCI-AML3 cell line (Supplementary Fig. 2b)
[3] = target: endogenous SENP3 (human (endogenous in OCI-AML2, OCI-AML3)) (UniProt Q9H4L4); assay: co-IP; endogenous proteins, NPM1 WT OCI-AML2 cell line (Supplementary Fig. 2a)
[4] = target: endogenous NPM1 (nucleophosmin) (human (endogenous in HEK293T, OCI-AML2)) (UniProt P06748); assay: as above
Flag-RAP80 ΔSIM = target: T1, Flag-RAP80 ΔSIM (UniProt Q96RL1); assay: co-IP; HEK293T transfected with Flag-RAP80 FL or ΔSIM, with or without IR; anti-NPM1 and anti-Flag antibodies
T1 sequence: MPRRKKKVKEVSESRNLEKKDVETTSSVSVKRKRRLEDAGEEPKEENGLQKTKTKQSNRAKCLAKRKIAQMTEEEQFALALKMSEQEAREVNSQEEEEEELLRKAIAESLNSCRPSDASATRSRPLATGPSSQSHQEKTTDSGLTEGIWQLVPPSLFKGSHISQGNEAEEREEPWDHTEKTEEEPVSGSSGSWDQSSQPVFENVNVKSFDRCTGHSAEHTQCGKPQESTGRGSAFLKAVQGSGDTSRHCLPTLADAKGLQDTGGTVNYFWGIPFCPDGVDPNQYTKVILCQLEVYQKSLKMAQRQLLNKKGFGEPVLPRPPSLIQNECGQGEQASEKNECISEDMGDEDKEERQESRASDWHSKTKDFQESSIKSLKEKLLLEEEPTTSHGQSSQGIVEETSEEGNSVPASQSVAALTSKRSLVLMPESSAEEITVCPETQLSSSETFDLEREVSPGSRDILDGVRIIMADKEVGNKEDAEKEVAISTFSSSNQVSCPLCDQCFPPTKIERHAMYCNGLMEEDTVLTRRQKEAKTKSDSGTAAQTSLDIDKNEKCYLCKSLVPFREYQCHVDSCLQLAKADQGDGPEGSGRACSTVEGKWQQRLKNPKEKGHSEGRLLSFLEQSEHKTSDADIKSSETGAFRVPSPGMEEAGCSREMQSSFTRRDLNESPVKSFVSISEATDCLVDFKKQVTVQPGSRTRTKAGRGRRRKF

[5] = target: SENP3 of the NPM1 co-IPs of Fig. 3i, j (human) (UniProt Q9H4L4); assay: co-IP; HEK293T and hCINAP-/- HEK293T transfected with the indicated plasmids, with or without hCINAP
[6] = target: SENP3 in spleen sections of AML PDX mice (not stated (spleen of NOD/SCID mice carrying human AML cells)) (UniProt Q9H4L4); assay: proximity ligation; PLA staining of spleen sections of AML PDX mice, control shRNA or hCINAP shRNA

binding (HA-NPM1 WT): binds
binding (Myc-SENP3 (human)): binds
Substance: Flag-hCINAP (human coilin-interacting nuclear ATPase protein) (from UniProt Q9Y3D8 1-172)

binding (Flag-NPM1 K263R): no binding
binding (Flag-NPM1 WT): binds
Substance: RAD51 (from UniProt Q06609 1-339)

binding [1]: binds
binding [2]: binds
binding [3]: binds
binding [4]: binds
Substance: endogenous hCINAP (from UniProt Q9Y3D8 1-172)

binding (Flag-RAP80 ΔSIM): no binding
Substance: endogenous NPM1 (nucleophosmin) (from UniProt P06748 1-294)

binding [5]: binds
Substance: NPM1 of the SENP3 co-IPs of Fig. 3i, j (from UniProt P06748 1-294)

binding [6]: binds
Substance: NPM1 in spleen sections of AML PDX mice (from UniProt P06748 1-294)
